Source: the supplement of paper PMC11876631
± gives the standard deviation of the averaged measurements. Laboratory Escherichia coli strains with one amino-acid change in an essential protein, pooled on minimal glucose agar with carbenicillin or gentamicin at twice the control MIC (plus kanamycin and chloramphenicol for the plasmids), 48 h. Fold change of barcode share against drug-free plates; higher = less susceptible. Active = above 20 in both replicates (the paper's putatively resistant). '<' = one read or none on drug, '>' = one read or none on a drug-free plate. Shares are relative, so most strains fall below 1 when a few take over. Listed are strains with at least 15 reads on both drug-free plates, and hits; most hits rest on fewer reference reads. Replicate rank correlation about 0.5. Edits are read from barcodes.

B1: ribA L47D (protein)
chain: MQLKRVAEAKLPTPWGDFLMVGFEELATGHDHVALVYGDISGHTPVDARVHSECLTGDALFSLRCDCGFQLEAALTQIAEEGRGILLYHRQEGRNIGLLNKIRAYALQDQGYDTVEANHQLGFAADERDFTLCADMFKLLGVNEVRLLTNNPKKVEILTEAGINIVERVPLIVGRNPNNEHYLDTKAEKMGHLLNK
B2: ribA L47P (protein)
chain: MQLKRVAEAKLPTPWGDFLMVGFEELATGHDHVALVYGDISGHTPVPARVHSECLTGDALFSLRCDCGFQLEAALTQIAEEGRGILLYHRQEGRNIGLLNKIRAYALQDQGYDTVEANHQLGFAADERDFTLCADMFKLLGVNEVRLLTNNPKKVEILTEAGINIVERVPLIVGRNPNNEHYLDTKAEKMGHLLNK
B3: ribA M136A (protein)
chain: MQLKRVAEAKLPTPWGDFLMVGFEELATGHDHVALVYGDISGHTPVLARVHSECLTGDALFSLRCDCGFQLEAALTQIAEEGRGILLYHRQEGRNIGLLNKIRAYALQDQGYDTVEANHQLGFAADERDFTLCADAFKLLGVNEVRLLTNNPKKVEILTEAGINIVERVPLIVGRNPNNEHYLDTKAEKMGHLLNK
B4: ribA M136Q (protein)
chain: MQLKRVAEAKLPTPWGDFLMVGFEELATGHDHVALVYGDISGHTPVLARVHSECLTGDALFSLRCDCGFQLEAALTQIAEEGRGILLYHRQEGRNIGLLNKIRAYALQDQGYDTVEANHQLGFAADERDFTLCADQFKLLGVNEVRLLTNNPKKVEILTEAGINIVERVPLIVGRNPNNEHYLDTKAEKMGHLLNK
B5: ribA F137A (protein)
chain: MQLKRVAEAKLPTPWGDFLMVGFEELATGHDHVALVYGDISGHTPVLARVHSECLTGDALFSLRCDCGFQLEAALTQIAEEGRGILLYHRQEGRNIGLLNKIRAYALQDQGYDTVEANHQLGFAADERDFTLCADMAKLLGVNEVRLLTNNPKKVEILTEAGINIVERVPLIVGRNPNNEHYLDTKAEKMGHLLNK
B6: ribA F137W (protein)
chain: MQLKRVAEAKLPTPWGDFLMVGFEELATGHDHVALVYGDISGHTPVLARVHSECLTGDALFSLRCDCGFQLEAALTQIAEEGRGILLYHRQEGRNIGLLNKIRAYALQDQGYDTVEANHQLGFAADERDFTLCADMWKLLGVNEVRLLTNNPKKVEILTEAGINIVERVPLIVGRNPNNEHYLDTKAEKMGHLLNK
B7: ribC V26A (protein)
chain: MFTGIVQGTAKLVSIDEKPNFRTHVAELPDHMLDGLETGASVAHNGCCLTVTEINGNHVSFDLMKETLRITNLGDLKVGDWVNVERAAKFSDEIGGHLMSGHIMTTAEVAKILTSENNRQIWFKVQDSQLMKYILYKGFIGIDGISLTVGEVTPTRFCVHLIPETLERTTLGKKKLGARVNIEIDPQTQAVVDTVERVLAARENAMNQPGTEA
B8: ribC V26Q (protein)
chain: MFTGIVQGTAKLVSIDEKPNFRTHVQELPDHMLDGLETGASVAHNGCCLTVTEINGNHVSFDLMKETLRITNLGDLKVGDWVNVERAAKFSDEIGGHLMSGHIMTTAEVAKILTSENNRQIWFKVQDSQLMKYILYKGFIGIDGISLTVGEVTPTRFCVHLIPETLERTTLGKKKLGARVNIEIDPQTQAVVDTVERVLAARENAMNQPGTEA
B9: ribC V26D (protein)
chain: MFTGIVQGTAKLVSIDEKPNFRTHVDELPDHMLDGLETGASVAHNGCCLTVTEINGNHVSFDLMKETLRITNLGDLKVGDWVNVERAAKFSDEIGGHLMSGHIMTTAEVAKILTSENNRQIWFKVQDSQLMKYILYKGFIGIDGISLTVGEVTPTRFCVHLIPETLERTTLGKKKLGARVNIEIDPQTQAVVDTVERVLAARENAMNQPGTEA
B10: ribD V97D (protein)
chain: MQDEYYMARALKLAQRGRFTTHPNPNVGCVIVKDGEIVGEGYHQRAGEPHAEVHALRMAGEKAKGATAYVTLEPCSHHGRTPPCCDALIAAGVARVDASMQDPNPQVAGRGLYRLQQAGIDVSHGLMMSEAEQLNKGFLKRMRTGFPYIQLKLGASLDGRTAMASGESQWITSPQARRDVQLLRAQSHAILTSSATVLADDPALTVRWSELDEQTQALYPQQNLRQPIRIVIDSQNRVTPVHRIVQQPGETWFARTQEDSREWPETVRTLLIPEHKGHLDLVVLMMQLGKQQINSIWVEAGPTLAGALLQAGLVDELIVYIAPKLLGSDARGLCTLPGLEKLADAPQFKFKEIRHVGPDVCLHLVGA
B11: ribD L364A (protein)
chain: MQDEYYMARALKLAQRGRFTTHPNPNVGCVIVKDGEIVGEGYHQRAGEPHAEVHALRMAGEKAKGATAYVTLEPCSHHGRTPPCCDALIAAGVARVVASMQDPNPQVAGRGLYRLQQAGIDVSHGLMMSEAEQLNKGFLKRMRTGFPYIQLKLGASLDGRTAMASGESQWITSPQARRDVQLLRAQSHAILTSSATVLADDPALTVRWSELDEQTQALYPQQNLRQPIRIVIDSQNRVTPVHRIVQQPGETWFARTQEDSREWPETVRTLLIPEHKGHLDLVVLMMQLGKQQINSIWVEAGPTLAGALLQAGLVDELIVYIAPKLLGSDARGLCTLPGLEKLADAPQFKFKEIRHVGPDVCLHAVGA
B12: ribD L364W (protein)
chain: MQDEYYMARALKLAQRGRFTTHPNPNVGCVIVKDGEIVGEGYHQRAGEPHAEVHALRMAGEKAKGATAYVTLEPCSHHGRTPPCCDALIAAGVARVVASMQDPNPQVAGRGLYRLQQAGIDVSHGLMMSEAEQLNKGFLKRMRTGFPYIQLKLGASLDGRTAMASGESQWITSPQARRDVQLLRAQSHAILTSSATVLADDPALTVRWSELDEQTQALYPQQNLRQPIRIVIDSQNRVTPVHRIVQQPGETWFARTQEDSREWPETVRTLLIPEHKGHLDLVVLMMQLGKQQINSIWVEAGPTLAGALLQAGLVDELIVYIAPKLLGSDARGLCTLPGLEKLADAPQFKFKEIRHVGPDVCLHWVGA
B13: ribD L364Q (protein)
chain: MQDEYYMARALKLAQRGRFTTHPNPNVGCVIVKDGEIVGEGYHQRAGEPHAEVHALRMAGEKAKGATAYVTLEPCSHHGRTPPCCDALIAAGVARVVASMQDPNPQVAGRGLYRLQQAGIDVSHGLMMSEAEQLNKGFLKRMRTGFPYIQLKLGASLDGRTAMASGESQWITSPQARRDVQLLRAQSHAILTSSATVLADDPALTVRWSELDEQTQALYPQQNLRQPIRIVIDSQNRVTPVHRIVQQPGETWFARTQEDSREWPETVRTLLIPEHKGHLDLVVLMMQLGKQQINSIWVEAGPTLAGALLQAGLVDELIVYIAPKLLGSDARGLCTLPGLEKLADAPQFKFKEIRHVGPDVCLHQVGA
B14: ribD M7A (protein)
chain: MQDEYYAARALKLAQRGRFTTHPNPNVGCVIVKDGEIVGEGYHQRAGEPHAEVHALRMAGEKAKGATAYVTLEPCSHHGRTPPCCDALIAAGVARVVASMQDPNPQVAGRGLYRLQQAGIDVSHGLMMSEAEQLNKGFLKRMRTGFPYIQLKLGASLDGRTAMASGESQWITSPQARRDVQLLRAQSHAILTSSATVLADDPALTVRWSELDEQTQALYPQQNLRQPIRIVIDSQNRVTPVHRIVQQPGETWFARTQEDSREWPETVRTLLIPEHKGHLDLVVLMMQLGKQQINSIWVEAGPTLAGALLQAGLVDELIVYIAPKLLGSDARGLCTLPGLEKLADAPQFKFKEIRHVGPDVCLHLVGA
B15: ribD M7W (protein)
chain: MQDEYYWARALKLAQRGRFTTHPNPNVGCVIVKDGEIVGEGYHQRAGEPHAEVHALRMAGEKAKGATAYVTLEPCSHHGRTPPCCDALIAAGVARVVASMQDPNPQVAGRGLYRLQQAGIDVSHGLMMSEAEQLNKGFLKRMRTGFPYIQLKLGASLDGRTAMASGESQWITSPQARRDVQLLRAQSHAILTSSATVLADDPALTVRWSELDEQTQALYPQQNLRQPIRIVIDSQNRVTPVHRIVQQPGETWFARTQEDSREWPETVRTLLIPEHKGHLDLVVLMMQLGKQQINSIWVEAGPTLAGALLQAGLVDELIVYIAPKLLGSDARGLCTLPGLEKLADAPQFKFKEIRHVGPDVCLHLVGA
B16: ribD M7Q (protein)
chain: MQDEYYQARALKLAQRGRFTTHPNPNVGCVIVKDGEIVGEGYHQRAGEPHAEVHALRMAGEKAKGATAYVTLEPCSHHGRTPPCCDALIAAGVARVVASMQDPNPQVAGRGLYRLQQAGIDVSHGLMMSEAEQLNKGFLKRMRTGFPYIQLKLGASLDGRTAMASGESQWITSPQARRDVQLLRAQSHAILTSSATVLADDPALTVRWSELDEQTQALYPQQNLRQPIRIVIDSQNRVTPVHRIVQQPGETWFARTQEDSREWPETVRTLLIPEHKGHLDLVVLMMQLGKQQINSIWVEAGPTLAGALLQAGLVDELIVYIAPKLLGSDARGLCTLPGLEKLADAPQFKFKEIRHVGPDVCLHLVGA

target: Escherichia coli (laboratory strain); assay: barcode share on antibiotic plates over drug-free plates; higher = less susceptible; settings: antibiotic: carbenicillin; 2× MIC (3.1 µg/mL)
Protocol: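 A pool of E. coli strains, each edited to carry one amino-acid change in an essential protein, was grown for 48 h on minimal glucose agar with or without antibiotic; strain barcodes were sequenced; mean of two replicates.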

Protein	fold change of barcode share
B1	0.318 ± 0.057
B2	0.199 ± 0.039
B3	0.334 ± 0.11
B4	0.323 ± 0.08
B5	0.257 ± 0.0035
B6	0.326 ± 0.015
B7	0.11 ± 0.13
B8	0.177 ± 0.027
B9	0.27 ± 0.28
B10	0.236 ± 0.098
B11	0.3115 ± 0.0014
B12	1.8001 ± 0.00063
B13	0.41 ± 0.17
B14	0.407 ± 0.21
B15	0.371 ± 0.034
B16	0.263 ± 0.018

same assay, conditions: antibiotic: gentamicin; 2× MIC (MIC 0.45 µg/mL)

Protein	fold change of barcode share
B2	< 0.00569
B3	0.023 ± 0.02
B5	< 0.0173
B6	< 0.0152
B7	< 0.0152
B8	< 0.00517
B9	0.353 ± 0.48
B10	< 0.00592
B11	11.5 ± 10
B12	768 [active]
B13	0.556 ± 0.31
B14	< 0.018
B15	< 0.0189
